From the supplement of paper PMC11876631
± gives the standard deviation of the averaged measurements. Laboratory Escherichia coli strains with one amino-acid change in an essential protein, pooled on minimal glucose agar with carbenicillin or gentamicin at twice the control MIC (plus kanamycin and chloramphenicol for the plasmids), 48 h. Fold change of barcode share against drug-free plates; higher = less susceptible. Active = above 20 in both replicates (the paper's putatively resistant). '<' = one read or none on drug, '>' = one read or none on a drug-free plate. Shares are relative, so most strains fall below 1 when a few take over. Listed are strains with at least 15 reads on both drug-free plates, and hits; most hits rest on fewer reference reads. Replicate rank correlation about 0.5. Edits are read from barcodes.

B1: cysS L387D (protein)
chain: MLKIFNTLTRQKEEFKPIHAGEVGMYVCGITVYDLCHIGHGRTFVAFDVVARYLRFLGYKLKYVRNITDIDDKIIKRANENGESFVAMVDRMIAEMHKDFDALNILRPDMEPRATHHIAEIIELTEQLIAKGHAYVADNGDVMFDVPTDPTYGVLSRQDLDQLQAGARVDVVDDKRNPMDFVLWKMSKEGEPSWPSPWGAGRPGWHIECSAMNCKQLGNHFDIHGGGSDLMFPHHENEIAQSTCAHDGQYVNYWMHSGMVMVDREKMSKSLGNFFTVRDVLKYYDAETVRYFLMSGHYRSQLNYSEENLKQARAALERLYTALRGTDKTVAPAGGEAFEARFIEAMDDDFNTPEAYSVLFDMAREVNRLKAEDMAAANAMASHLRKDSAVLGLLEQEPEAFLQSGAQADDSEVAEIEALIQQRLDARKAKDWAAADAARDRLNEMGIVLEDGPQGTTWRRK
B2: cysS M96A (protein)
chain: MLKIFNTLTRQKEEFKPIHAGEVGMYVCGITVYDLCHIGHGRTFVAFDVVARYLRFLGYKLKYVRNITDIDDKIIKRANENGESFVAMVDRMIAEAHKDFDALNILRPDMEPRATHHIAEIIELTEQLIAKGHAYVADNGDVMFDVPTDPTYGVLSRQDLDQLQAGARVDVVDDKRNPMDFVLWKMSKEGEPSWPSPWGAGRPGWHIECSAMNCKQLGNHFDIHGGGSDLMFPHHENEIAQSTCAHDGQYVNYWMHSGMVMVDREKMSKSLGNFFTVRDVLKYYDAETVRYFLMSGHYRSQLNYSEENLKQARAALERLYTALRGTDKTVAPAGGEAFEARFIEAMDDDFNTPEAYSVLFDMAREVNRLKAEDMAAANAMASHLRKLSAVLGLLEQEPEAFLQSGAQADDSEVAEIEALIQQRLDARKAKDWAAADAARDRLNEMGIVLEDGPQGTTWRRK
B3: cysS M96Q (protein)
chain: MLKIFNTLTRQKEEFKPIHAGEVGMYVCGITVYDLCHIGHGRTFVAFDVVARYLRFLGYKLKYVRNITDIDDKIIKRANENGESFVAMVDRMIAEQHKDFDALNILRPDMEPRATHHIAEIIELTEQLIAKGHAYVADNGDVMFDVPTDPTYGVLSRQDLDQLQAGARVDVVDDKRNPMDFVLWKMSKEGEPSWPSPWGAGRPGWHIECSAMNCKQLGNHFDIHGGGSDLMFPHHENEIAQSTCAHDGQYVNYWMHSGMVMVDREKMSKSLGNFFTVRDVLKYYDAETVRYFLMSGHYRSQLNYSEENLKQARAALERLYTALRGTDKTVAPAGGEAFEARFIEAMDDDFNTPEAYSVLFDMAREVNRLKAEDMAAANAMASHLRKLSAVLGLLEQEPEAFLQSGAQADDSEVAEIEALIQQRLDARKAKDWAAADAARDRLNEMGIVLEDGPQGTTWRRK
B4: cysS L293A (protein)
chain: MLKIFNTLTRQKEEFKPIHAGEVGMYVCGITVYDLCHIGHGRTFVAFDVVARYLRFLGYKLKYVRNITDIDDKIIKRANENGESFVAMVDRMIAEMHKDFDALNILRPDMEPRATHHIAEIIELTEQLIAKGHAYVADNGDVMFDVPTDPTYGVLSRQDLDQLQAGARVDVVDDKRNPMDFVLWKMSKEGEPSWPSPWGAGRPGWHIECSAMNCKQLGNHFDIHGGGSDLMFPHHENEIAQSTCAHDGQYVNYWMHSGMVMVDREKMSKSLGNFFTVRDVLKYYDAETVRYFAMSGHYRSQLNYSEENLKQARAALERLYTALRGTDKTVAPAGGEAFEARFIEAMDDDFNTPEAYSVLFDMAREVNRLKAEDMAAANAMASHLRKLSAVLGLLEQEPEAFLQSGAQADDSEVAEIEALIQQRLDARKAKDWAAADAARDRLNEMGIVLEDGPQGTTWRRK
B5: cysS L293W (protein)
chain: MLKIFNTLTRQKEEFKPIHAGEVGMYVCGITVYDLCHIGHGRTFVAFDVVARYLRFLGYKLKYVRNITDIDDKIIKRANENGESFVAMVDRMIAEMHKDFDALNILRPDMEPRATHHIAEIIELTEQLIAKGHAYVADNGDVMFDVPTDPTYGVLSRQDLDQLQAGARVDVVDDKRNPMDFVLWKMSKEGEPSWPSPWGAGRPGWHIECSAMNCKQLGNHFDIHGGGSDLMFPHHENEIAQSTCAHDGQYVNYWMHSGMVMVDREKMSKSLGNFFTVRDVLKYYDAETVRYFWMSGHYRSQLNYSEENLKQARAALERLYTALRGTDKTVAPAGGEAFEARFIEAMDDDFNTPEAYSVLFDMAREVNRLKAEDMAAANAMASHLRKLSAVLGLLEQEPEAFLQSGAQADDSEVAEIEALIQQRLDARKAKDWAAADAARDRLNEMGIVLEDGPQGTTWRRK
B6: cysS L293D (protein)
chain: MLKIFNTLTRQKEEFKPIHAGEVGMYVCGITVYDLCHIGHGRTFVAFDVVARYLRFLGYKLKYVRNITDIDDKIIKRANENGESFVAMVDRMIAEMHKDFDALNILRPDMEPRATHHIAEIIELTEQLIAKGHAYVADNGDVMFDVPTDPTYGVLSRQDLDQLQAGARVDVVDDKRNPMDFVLWKMSKEGEPSWPSPWGAGRPGWHIECSAMNCKQLGNHFDIHGGGSDLMFPHHENEIAQSTCAHDGQYVNYWMHSGMVMVDREKMSKSLGNFFTVRDVLKYYDAETVRYFDMSGHYRSQLNYSEENLKQARAALERLYTALRGTDKTVAPAGGEAFEARFIEAMDDDFNTPEAYSVLFDMAREVNRLKAEDMAAANAMASHLRKLSAVLGLLEQEPEAFLQSGAQADDSEVAEIEALIQQRLDARKAKDWAAADAARDRLNEMGIVLEDGPQGTTWRRK

Target: Escherichia coli (laboratory strain)
Assay: barcode share on antibiotic plates over drug-free plates; higher = less susceptible
Experimental: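 A pool of E. coli strains, each edited to carry one amino-acid change in an essential protein, was grown for 48 h on minimal glucose agar with or without antibiotic; strain barcodes were sequenced; mean of two replicates.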

[1] = antibiotic: carbenicillin, 2× MIC (3.1 µg/mL)
[2] = antibiotic: gentamicin, 2× MIC (MIC 0.45 µg/mL)

Row | Protein | fold change of barcode share [1] | fold change of barcode share [2]
1 | B1 | 0.347 ± 0.029 | 
2 | B2 | 0.349 ± 0.1 | 0.0273 ± 0.017
3 | B3 | 1.29 ± 0.69 | 
4 | B4 | 0.342 ± 0.043 | 0.00308 ± 0.0018
5 | B5 | 0.389 ± 0.14 | 0.00394 ± 0.002
6 | B6 | 0.83 ± 0.49 | 
